Data as given in PubChem BioAssay (Tox21).
Several values for one entry are separate records, joined by “and”; a condition that tells them apart may be missing. Equal entries are not always repeated. Inconclusive means that the source gave no clear call. Such entries were picked first, then a sample of the others. For part of these data: Potencies of inconclusive entries are doubtful fits and often do not repeat. Activity calls are given as the source filed them. Unless noted, calls come from the whole dose curve.

Key:
[1] = target: Progesterone receptor (Homo sapiens) (UniProt P06401); assay: qHTS assay to identify small molecule agonists of the progesterone receptor (PR) signaling pathway (AID 1346784); conditions: PR-UAS-bla HEK293T, beta-lactamase FRET ratio, 16 h; activation: at 92.4 µM (top of the series) unless noted; note: nearly all actives have a fitted effect of over 30% in size; note: potency is the fitted concentration of half-maximal effect; for activation: % is set by controls: 0 for no effect and ±100 for the full control effect
Procedure, shortened: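 PR-UAS-bla HEK 293T cells (beta-lactamase reporter under UAS) in 2% charcoal-stripped FBS, dosed with 23 nL compound after 6 hr, incubated 16hr at 37C. LiveBLAzer B/G FRET substrate added, fluorescence read after 2 hours.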

[2] = qHTS assay to identify small molecule antagonists of the progesterone receptor (PR) signaling pathway - cell viability counter screen (AID 1346798; active = well fitted curve in the direction sought with a large enough effect in the repeat runs; inconclusive = weak or mixed curves; inactive = no such curve, though single readings can be large; an effect the other way counts as inactive or inconclusive; note: nearly all actives have a fitted effect of over 50% in size; note: potency is the fitted concentration of half-maximal effect)
Procedure, shortened: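 PR-UAS-bla HEK293T cells, 3,000/well in 2% charcoal-stripped FBS medium, dosed with compounds plus R5020 agonist and incubated 16 h at 37C. Viability then measured in the same wells by CellTiter-Glo luminescence after 30 min at RT.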

[3] = qHTS assay to identify small molecule agonists of the progesterone receptor (PR) signaling pathway - cell viability counter screen (AID 1346799); note: nearly all actives have a fitted effect of over 45% in size; note: potency is the fitted concentration of half-maximal effect; for activity change, negative = cytotoxicity: % is set by controls: 0 for no effect and ±100 for the full control effect
Procedure, shortened: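 Counter screen in the PR-UAS-bla HEK293T wells (2% charcoal-stripped FBS, 16 h compound exposure at 37 C) after the bla read. CellTiter-Glo added, 30 min at room temperature, luminescence read as cell viability.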

[4] = qHTS assay to identify small molecule antagonists of the TGF-beta/Smad signaling pathway - cell viability counter screen (AID 1346824; active = well fitted curve in the direction sought with a large enough effect in the repeat runs; inconclusive = weak or mixed curves; inactive = no such curve, though single readings can be large; an effect the other way counts as inactive or inconclusive; note: potency is the fitted concentration of half-maximal effect; nearly all actives have a fitted effect of over 50% in size)
Procedure, shortened: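 SBE-bla HEK 293T cells were plated overnight at 37 C, then given compounds in DMSO plus TGF-beta1 (added as 0.25 ng/mL solution) for 5 hr. After the bla read, CellTiter-Glo was added to the same wells and luminescence read after 30 min at room temperature.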

[5] = qHTS assay to identify small molecule agonists of the TGF-beta/Smad signaling pathway - cell viability counter screen (AID 1346829; active = well fitted curve in the direction sought with a large enough effect in the repeat runs; inconclusive = weak or mixed curves; inactive = no such curve, though single readings can be large; an effect the other way counts as inactive or inconclusive; note: nearly all actives have a fitted effect of over 45% in size; note: potency is the fitted concentration of half-maximal effect; for activity change, negative = cytotoxicity: top concentration of the series differs between compounds; % is set by controls: 0 for no effect and ±100 for the full control effect)
Procedure, shortened: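 Tox21 qHTS format: SBE-bla HEK 293T cells treated with DMSO-dissolved compounds for 5 hr; CellTiter-Glo luminescence after 30 min at room temperature.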

[6] = target: Thyrotropin-releasing hormone receptor (Homo sapiens) (UniProt P34981); assay: qHTS assay to identify small molecule antagonists of the thyrotropin-releasing hormone receptor (TRHR) signaling pathway (AID 1346877; active = well fitted inhibition curve with a large enough effect in the repeat runs, not every such curve was filed as active; inconclusive = weak or mixed curves; note: % is set by controls: 0 for no effect and ±100 for the full control effect)
Procedure, shortened: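 HEK293/TRHR cells, 18 h, 37 °C; Ca2+ dye 2 h; cpd 5 min RT; TRH 1 nM final; fluorescence read 3 min, 1 s intervals; 15 concs, triplicate.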

[7] = target: Progesterone receptor (Homo sapiens) (UniProt P06401); assay: qHTS assay to identify small molecule antagonists of the progesterone receptor (PR) signaling pathway (AID 1346795; active = well fitted inhibition curve with a large enough effect in the signal ratio in the repeat runs, not every such curve was filed as active; inconclusive = weak or mixed curves; the % refers to the signal ratio; note: potency is the fitted concentration of half-maximal effect); conditions: PR-UAS-bla HEK293T, beta-lactamase FRET ratio, 16 h
Procedure, shortened: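 PR-UAS-bla HEK293T cells with beta-lactamase reporter under UAS control, in 2% charcoal-stripped FBS, treated with compounds plus 1 nM promegestone (R5020, final) for 16 hr at 37C. Read-out: FRET beta-lactamase substrate fluorescence after 2 hr at room temperature.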

[8] = activity change, negative = inhibition: at 92.4 µM (top of the series) unless noted
Tags give direction and shape of the fitted curve or compound fluorescence and quenching.

Sequence of UniProt P06401 (P06401 whole entry, looked up): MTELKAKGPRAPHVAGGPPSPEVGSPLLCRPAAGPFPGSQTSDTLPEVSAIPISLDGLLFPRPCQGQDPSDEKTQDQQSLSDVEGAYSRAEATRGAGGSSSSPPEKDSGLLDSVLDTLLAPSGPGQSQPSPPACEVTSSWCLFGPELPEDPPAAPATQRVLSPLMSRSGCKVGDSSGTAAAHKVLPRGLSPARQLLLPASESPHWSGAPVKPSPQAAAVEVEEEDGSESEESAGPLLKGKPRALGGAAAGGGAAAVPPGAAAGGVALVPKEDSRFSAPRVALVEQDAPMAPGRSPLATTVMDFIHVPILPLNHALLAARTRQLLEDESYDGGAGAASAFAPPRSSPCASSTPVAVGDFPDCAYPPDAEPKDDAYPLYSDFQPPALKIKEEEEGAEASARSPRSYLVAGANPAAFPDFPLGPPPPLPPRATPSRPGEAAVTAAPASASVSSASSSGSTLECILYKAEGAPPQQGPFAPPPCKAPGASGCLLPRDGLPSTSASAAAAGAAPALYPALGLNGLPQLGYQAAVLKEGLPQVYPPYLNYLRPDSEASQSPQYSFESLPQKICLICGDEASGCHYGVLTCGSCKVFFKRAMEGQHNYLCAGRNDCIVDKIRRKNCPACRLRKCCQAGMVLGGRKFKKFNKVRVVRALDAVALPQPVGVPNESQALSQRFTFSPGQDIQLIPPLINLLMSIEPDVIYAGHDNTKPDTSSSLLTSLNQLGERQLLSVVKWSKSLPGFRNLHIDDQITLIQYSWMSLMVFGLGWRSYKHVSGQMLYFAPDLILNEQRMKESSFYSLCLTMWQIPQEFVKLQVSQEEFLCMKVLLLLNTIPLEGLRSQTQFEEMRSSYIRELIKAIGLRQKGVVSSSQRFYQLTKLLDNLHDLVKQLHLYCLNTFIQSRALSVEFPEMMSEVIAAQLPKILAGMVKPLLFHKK
Sequence of UniProt P34981 (P34981 whole entry, looked up): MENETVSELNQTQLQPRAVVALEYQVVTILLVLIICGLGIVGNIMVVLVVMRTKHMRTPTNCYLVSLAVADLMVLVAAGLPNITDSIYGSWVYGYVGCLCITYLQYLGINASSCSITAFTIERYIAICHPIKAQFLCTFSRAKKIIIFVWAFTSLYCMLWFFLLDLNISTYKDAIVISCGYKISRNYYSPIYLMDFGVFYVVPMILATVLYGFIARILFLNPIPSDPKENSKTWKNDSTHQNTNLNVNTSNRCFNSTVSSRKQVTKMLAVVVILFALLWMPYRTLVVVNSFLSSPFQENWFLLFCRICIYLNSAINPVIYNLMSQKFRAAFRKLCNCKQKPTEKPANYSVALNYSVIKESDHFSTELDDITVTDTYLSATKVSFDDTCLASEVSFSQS

## C=CC(=O)OCC(CO)(COC(=O)C=C)COC(=O)C=C
[1]
  Potency: inconclusive: 15.4 µM [cytotoxic, partial curve] and inconclusive: 21.7 µM [cytotoxic, full curve]
[2]
  Potency: active: 17.3 µM and active: 27.3 µM
[3]
  Potency: active: 27.4 µM and active: 30.6 µM
[4]
  Potency: inconclusive: 49.1 µM [cytotoxic, partial curve, poor fit] and inconclusive: 54.9 µM [cytotoxic, single point]
[5]
  Potency: inconclusive: 55.1 µM [cytotoxic, single point] and inconclusive: 61.7 µM [cytotoxic, single point]
[6]
  Potency: inactive

## NC1=NCC2c3ccccc3Cc3ccccc3N12 (stereo unspecified)
[1]
  Potency: inactive
[5]
  Potency: inactive

## O=NN(CCCl)C(=O)NCCCl
[1]
  Potency: inactive
[3]
  Potency: inactive

## C=CC(=O)OCCOCCOCC
[7]; [8]
  activity change, negative = inhibition: inconclusive: 4.28%

## OC[C@H]1O[C@@H](O[C@@H]2[C@@H](CO)O[C@](O)(CO)[C@H]2O)[C@H](O)[C@@H](O)[C@H]1O
[1]
  Potency: inactive
[3]
  Potency: inactive

## NCCCCCCNCCCCCCN
[7]; [8]
  Potency: inactive

## CCOC(=O)c1ncn2c1CN(C)C(=O)c1cc(F)ccc1-2
[1]
  Potency: inconclusive: 21.1 µM [activator]
[3]
  Potency: inactive

## COC(=O)CC#N
[1]
  Potency: inactive
[3]
  Potency: inactive

## c1cc2ccc3ccc4ccc5cccc6c(c1)c2c3c4c56
[1]
  Potency: active: 0.385 µM
[2]
  activity change, negative = cytotoxicity: inactive: 2.42% [at 3.27 µM]
[3]
  Potency: inconclusive: 0.968 µM [rising, partial curve, poor fit]

## O=C1Nc2ccccc2C1(c1ccc(O)cc1)c1ccc(O)cc1
[1]
  Potency: inconclusive: 54.5 µM [cytotoxic, partial curve]
[2]
  Potency: inconclusive: 24.3 µM [rising, partial curve] and inconclusive: 21.1 µM [rising, partial curve]

## COc1cc2c(c(OC)c1OC)-c1ccc(OC)c(=O)cc1[C@@H](NC(C)=O)CC2
[7]; at 42.5 µM (top of the series)
  activity change, negative = inhibition: inconclusive: -17.4%
[7]; at 92.4 µM (top of the series)
  activity change, negative = inhibition: inconclusive: -30.3% and inconclusive: -21.5%

## CCCCCCC(C)O (stereo unspecified)
[7]; at 92.4 µM (top of the series)
  activity change, negative = inhibition: inactive: 0.0423%

## CCCC(C)C(=O)O (stereo unspecified)
[7]; [8]
  Potency: inactive
[2]
  Potency: inconclusive: 52.3 µM [cytotoxic, partial curve]
[3]
  Potency: active: 18.5 µM

## NC(=O)N1c2ccccc2C=Cc2ccccc21
[7]; [8]
  activity change, negative = inhibition: inconclusive: -4.61%
[2]
  Potency: inconclusive: 68.6 µM [rising, single point]

## COc1cccc(CCc2ccccc2OCC(CN(C)C)OC(=O)CCC(=O)O)c1 (stereo unspecified)
[7]; [8]
  Potency: inconclusive: 33.5 µM [rising, single point]
[2]
  Potency: active: 13.3 µM
[3]
  Potency: active: 2.98 µM

## CCCCCCCCN(C)CCCCCCCC
[7]; [8]
  Potency: inactive
[2]
  Potency: inactive
